Drawing on PubChem BioAssay (NCI), this text covers GI50 and TGI for three compounds.

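Each compound was tested at five concentrations against cells in 96-well plates for 48 hours. Here, GI50 denotes the concentration required for 50% inhibition of growth. TGI denotes the concentration required for complete inhibition of growth.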 Peptide text beside a SMILES is read from it.

This experiment concerns NCI-H322M lung. Kind of experiment: growth of human tumour cells (NCI), 48 h.
For the compound `CNCc1cccc2c1OCCCCCCC(C)(O)CC(C)(C)S(=O)(=O)c1ccc(cc1)-c1cnc(N)c(n1)C(=O)N2` (stereo unspecified), the GI50 was 1.45 µM and the TGI is 4.94 µM.
For `Cc1ccc(C2=Nn3c(nnc3-c3ccccc3)SC2)cc1`, the GI50 is 5.16 µM and the TGI was more than 100 µM.
The corresponding values for `CC(=O)NC(C)(C)C(=O)N[C@@H](C)C(=O)NC(C)(C)C(=O)N[C@@H](C)C(=O)NC(C)(C)C(=O)N[C@@H](C)C(=O)N[C@@H](CCC(N)=O)C(=O)NC(C)(C)C(=O)N[C@H](C(=O)NC(C)(C)C(=O)NCC(=O)N[C@@H](CC(C)C)C(=O)NC(C)(C)C(=O)N1CCC[C@H]1C(=O)N[C@H](C(=O)NC(C)(C)C(=O)NC(C)(C)C(=O)N[C@@H](CCC(N)=O)C(=O)N[C@@H](CCC(N)=O)C(=O)N[C@H](CO)CC1CCCCC1)C(C)C)C(C)C` (HELM PEPTIDE1{[ac].[Aib].A.[Aib].A.[Aib].A.Q.[Aib].V.[Aib].G.L.[Aib].P.V.[Aib].[Aib].Q.Q.[OC[C@H](CC1CCCCC1)N[*:1]]}$$$$V2.0) are more than 5 µM and more than 5 µM.
